The other results are listed elsewhere or left out. Viral Rep nickase domains cut single-stranded DNA in vitro (1 h at 37 °C, 3 µM enzyme); the outer parts of the 90-letter strands are left off. Numbers give uncut DNA relative to the enzyme-free pool, as log2; strong cutting gives strongly negative numbers. There is no active / inactive call. Because reads are shares of a total, they shift together; where an enzyme cuts many sequences, the uncut ones exceed 0.
What was measured:
Assay in all cases: uncleaved DNA left, log2 of reads against the no-enzyme library (log2 ratio); higher = less cleavage (more negative = more Rep cleavage of the k-mer); sequences stand for … in CTCGTCCG…ACCGGAGA
[1] = test system: T1, Rep nickase domain of Muscovy duck circovirus
T1 sequence (Rep 1-111, printed without the tag): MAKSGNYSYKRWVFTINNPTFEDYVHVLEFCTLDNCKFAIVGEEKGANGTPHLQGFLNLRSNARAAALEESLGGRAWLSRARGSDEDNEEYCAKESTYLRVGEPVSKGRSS
Experimental: (§1)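 A pool of 90-nt single-stranded DNAs with seven random bases just before the constant AC of the nick site (name = the seven bases) was cut by 3 µM recombinant His6-SUMO-tagged Rep nickase domain (300 nM DNA, 50 mM HEPES pH 8.0, 50 mM NaCl, 1 mM MnCl2, 1 h, 37 °C, three replicates). Uncut DNA was amplified and sequenced.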

[2] = test system: T2, Rep nickase domain of banana bunchy top virus
T2 sequence (Rep 1-94, printed without the tag): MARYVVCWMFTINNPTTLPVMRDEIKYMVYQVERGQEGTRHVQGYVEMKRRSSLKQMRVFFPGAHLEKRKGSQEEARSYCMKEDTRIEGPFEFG
Experimental: as §1

[3] = test system: T3, Rep nickase domain of cabbage leaf curl virus
T3 sequence (Rep 1-116, printed without the tag): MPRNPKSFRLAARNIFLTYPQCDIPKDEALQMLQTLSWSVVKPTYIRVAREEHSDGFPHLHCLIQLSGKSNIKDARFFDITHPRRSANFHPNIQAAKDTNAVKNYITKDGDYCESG
Experimental: as §1

[4] = test system: T4, Rep nickase domain of chickpea chlorotic dwarf virus
T4 sequence (Rep 1-124, printed without the tag): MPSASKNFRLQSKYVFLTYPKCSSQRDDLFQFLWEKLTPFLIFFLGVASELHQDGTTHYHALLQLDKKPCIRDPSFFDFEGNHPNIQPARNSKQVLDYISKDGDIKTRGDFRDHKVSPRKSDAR
Experimental: as §1

[5] = test system: T5, Rep nickase domain of faba bean necrotic yellows virus
T5 sequence (Rep 1-98, printed without the tag): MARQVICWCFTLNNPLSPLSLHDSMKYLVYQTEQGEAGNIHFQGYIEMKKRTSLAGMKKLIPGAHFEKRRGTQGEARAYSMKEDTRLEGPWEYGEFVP
Experimental: as §1

[6] = test system: T6, Rep nickase domain of maize striate mosaic virus
T6 sequence (Rep 1-117, printed without the tag): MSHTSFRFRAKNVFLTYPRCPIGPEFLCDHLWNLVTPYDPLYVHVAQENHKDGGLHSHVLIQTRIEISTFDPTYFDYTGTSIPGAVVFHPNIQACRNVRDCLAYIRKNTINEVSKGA
Experimental: as §1

[7] = test system: T7, Rep nickase domain of porcine circovirus 2
T7 sequence (Rep 2-116, printed without the tag): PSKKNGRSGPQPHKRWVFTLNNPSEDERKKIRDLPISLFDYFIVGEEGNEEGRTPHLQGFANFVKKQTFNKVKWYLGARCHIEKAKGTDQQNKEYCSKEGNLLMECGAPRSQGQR
Experimental: as §1

[8] = test system: T8, Rep nickase domain of tomato golden mosaic virus
T8 sequence (Rep 1-124, printed without the tag): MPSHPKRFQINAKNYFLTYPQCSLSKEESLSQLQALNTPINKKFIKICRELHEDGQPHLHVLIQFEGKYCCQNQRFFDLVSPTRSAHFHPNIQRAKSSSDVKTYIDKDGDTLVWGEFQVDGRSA
Experimental: as §1

[9] = test system: T9, Rep nickase domain of tomato yellow leaf curl virus
T9 sequence (Rep 1-136, printed without the tag): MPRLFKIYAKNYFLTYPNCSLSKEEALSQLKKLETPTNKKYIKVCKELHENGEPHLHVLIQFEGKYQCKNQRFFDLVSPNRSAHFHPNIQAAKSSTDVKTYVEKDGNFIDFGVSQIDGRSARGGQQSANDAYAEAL
Experimental: as §1

[10] = test system: T10, Rep nickase domain of wheat dwarf virus
T10 sequence (Rep 1-137, printed without the tag): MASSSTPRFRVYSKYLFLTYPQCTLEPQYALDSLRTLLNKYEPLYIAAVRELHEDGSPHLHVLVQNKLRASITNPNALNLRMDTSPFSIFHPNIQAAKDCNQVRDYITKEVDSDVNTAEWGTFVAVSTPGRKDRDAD
Experimental: as §1

Sequence | uncleaved DNA left (log2) [1] | uncleaved DNA left (log2) [2] | uncleaved DNA left (log2) [3] | uncleaved DNA left (log2) [4] | uncleaved DNA left (log2) [5] | uncleaved DNA left (log2) [6] | uncleaved DNA left (log2) [7] | uncleaved DNA left (log2) [8] | uncleaved DNA left (log2) [9] | uncleaved DNA left (log2) [10]
TACGCTG | -0.0484 | -0.0105 | 0.18 | 0.691 | 0.0149 | 1.34 | -0.00553 | 0.0656 | -0.17 | -0.0254
ATTTGTG | -0.0226 | -0.0194 | -0.598 | 0.594 | 0.0713 | -0.522 | 0.236 | 0.0359 | 0.0661 | -0.104
TAGCGAG | 0.0911 | 0.2 | 0.0494 | 0.456 | 0.011 | 0.0417 | 0.158 | 0.14 | 0.132 | 0.0861
TTGGCAC | -0.0385 | 0.0373 | 0.136 | 0.132 | -0.0126 | -0.213 | 0.00309 | -0.127 | 0.09 | 0.0147
AAACTCA | -0.0161 | 0.0891 | -0.159 | -2.2 | 0.0347 | -0.523 | -0.137 | 0.042 | 0.106 | 0.0239
GTAGTGT | 0.018 | 0.0116 | 0.241 | 0.717 | -0.0363 | 1.11 | -0.0567 | 0.011 | 0.0925 | 0.0753
GTGGTTG | 0.0859 | 0.0113 | 0.215 | 0.567 | -0.0435 | 0.755 | 0.13 | -0.0223 | 0.0366 | 0.0372
CAACGCG | 0.0267 | 0.0648 | -0.863 | -0.318 | 0.0618 | -0.857 | 0.219 | -0.0248 | 0.0377 | -0.0422
GAGGTTA | 0.217 | 0.175 | 0.307 | 0.488 | 0.0172 | 1.7 | -0.039 | 0.205 | 0.055 | 0.115
GAAGTTG | 0.000917 | -0.0661 | 0.186 | 0.843 | -0.00111 | 0.915 | 0.0279 | -0.0414 | -0.15 | -0.0299
ATTCTTG | -0.0469 | -0.222 | -0.6 | -2.48 | -0.17 | -1.32 | -0.098 | -0.156 | -0.161 | -0.232
AGATGTC | 0.11 | -0.0633 | 0.235 | 0.55 | 0.085 | -0.0379 | 0.0695 | -0.0364 | -0.0577 | -0.11
GCGACAA | -0.0938 | 0.0908 | 0.241 | 1.16 | -0.0456 | 1.67 | 0.123 | 0.0549 | 0.0417 | 0.0962
ATAGGAG | 0.0609 | -0.00869 | 0.0565 | 1.1 | -0.032 | 0.518 | 0.163 | 0.172 | -0.00751 | 0.0859
ACCATCG | -0.0499 | 0.00635 | 0.0484 | 1.43 | -0.0203 | 1.04 | 0.0584 | -0.089 | 0.17 | -0.0405
CTAATGC | 0.059 | 0.103 | -0.413 | -0.482 | 0.131 | -1.15 | 0.149 | -0.0202 | 0.151 | -0.0818
TATCATA | 0.000946 | 0.0564 | 0.0402 | -2.02 | 0.00606 | -0.295 | -0.183 | -0.0736 | 0.117 | 0.0131
CCTGATG | 0.113 | -0.0173 | -0.0606 | 0.0101 | 0.364 | -0.636 | 0.16 | 0.172 | 0.157 | 0.108
GTATACC | -0.0211 | 0.0192 | 0.249 | 0.66 | -0.0258 | 1.39 | -0.0109 | 0.0302 | 0.0291 | 0.102
AATGGAA | -0.04 | -0.0652 | 0.147 | 1.26 | 0.0232 | 1.47 | 0.149 | 0.0373 | -0.152 | 0.0148
AGCTTTT | -1.64 | -0.149 | -0.154 | -1.64 | -0.0489 | 0.00204 | -3.48 | -0.0731 | 0.0585 | -0.159
CGTCGGT | 0.125 | 0.0191 | 0.251 | 0.437 | 0.11 | 0.633 | 0.0364 | 0.0958 | -0.017 | 0.0087
CGAACGG | 0.0159 | 0.0545 | 0.193 | 0.899 | -0.0339 | 1.3 | 0.121 | 0.117 | -0.103 | 0.00562
CTCTACG | -0.0743 | 0.0162 | -0.973 | -0.621 | -0.0394 | -0.986 | 0.0424 | -0.116 | -0.148 | -0.000323
ACTCGTA | -0.052 | -0.00299 | -0.337 | -0.989 | 0.0654 | -0.861 | -0.117 | 0.103 | -0.0887 | -0.0906
AATCGCG | -0.012 | -0.0076 | -0.556 | 0.981 | -0.0567 | -0.00817 | 0.0309 | -0.0658 | -0.0323 | -0.0617
CCCTCGC | -0.0443 | -0.0379 | -0.367 | -0.749 | -0.0725 | -0.936 | 0.0178 | 0.0223 | -0.138 | -0.168
TTGACCC | -0.0577 | 0.0434 | 0.249 | 0.557 | -0.0499 | 0.415 | -0.129 | -0.0683 | -0.0638 | -0.051
ACTCTTC | 0.00809 | -0.0242 | -0.0781 | -0.372 | -0.0339 | -0.913 | 0.128 | 0.0242 | -0.0665 | -0.0762
GATGAGC | -0.0561 | -0.135 | -0.233 | 0.248 | -0.0412 | -0.562 | 0.0422 | -0.245 | -0.122 | -0.0327
